A short description of series [1]: Single and repeat iv dose toxicity study in rats. The settings on record: both sexes, rat, in vivo, Sprague Dawley rats.
Series [2] in a line: Single and repeat iv dose toxicity study in dogs. The settings on record: both sexes, dog, in vivo, beagle dogs.
A short description of series [3]: In vivo metabolism of 18F-labeled trehalose analogs in rabbits. The settings on record: for % 2-FDT: rabbits.
Series [4] has as its system Mtb (strain Erdman) lesions. Put plainly: PET/CT imaging in Mtb-infected cynomolgus macaques. The format is in vivo. The settings on record: 120 min.
Series [5] is described as follows: Dynamic PET biodistribution and dosimetry in naive rhesus macaque. The format is in vivo.
Series [6] has as its system Mtb-infected marmoset lung lesions. Put plainly: PET/CT imaging of tracer uptake in marmoset TB model. The format is in vivo.
Series [7] is described as follows: Biodistribution by gamma counting in Mtb-infected marmosets. Format: in vivo, marmoset. The settings on record: two Mtb-infected marmosets, 74 MBq/kg, 120 min post-injection.
In another series the test system is OtsA. The settings on record: OtsA expressed from E. coli; cited from earlier work.
The next series concerns the target OtsB (Escherichia coli, UniProt P31678). Put plainly: OtsB enzyme kinetics (enzyme expressed in E. coli). The settings on record: continuous 1H NMR assay, 37 °C.
A further series has as its target OtsB^Sf (Escherichia coli, UniProt P31678). Put plainly: OtsB^Sf enzyme kinetics (1H NMR). To be noted: enzyme expressed from Spodoptera frugiperda; continuous 1H NMR assay, 37 °C.
Setting [8] is: rhesus data extrapolated to humans.

Consider four molecules from PMC11211441, “Distributable, metabolic PET reporting of tuberculosis” (Nature Communications, 2024).

In general, NOAEL refers to the highest dose or exposure tested at which no adverse effect was seen. What is called Km is the concentration of substrate that gives half-maximal velocity. As a reminder, the kcat is the maximal rate divided by the concentration of active sites.

Sequence of UniProt P31678 (P31678 whole entry): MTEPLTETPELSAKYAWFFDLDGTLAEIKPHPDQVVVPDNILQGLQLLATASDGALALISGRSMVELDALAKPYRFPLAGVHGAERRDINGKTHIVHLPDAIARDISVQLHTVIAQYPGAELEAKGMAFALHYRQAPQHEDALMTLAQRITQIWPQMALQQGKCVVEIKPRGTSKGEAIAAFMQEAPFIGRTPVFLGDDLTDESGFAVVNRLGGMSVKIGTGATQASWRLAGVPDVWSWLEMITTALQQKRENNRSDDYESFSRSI

`OC[C@H]1O[C@H](O[C@H]2O[C@H](CO)[C@@H](O)[C@H](O)[C@H]2F)[C@H](O)[C@@H](O)[C@@H]1O` [[^19F]FDT]: the no-observed-adverse-effect level (NOAEL) at 7 days is at least 1.32 mg/kg/day in series [1] (1.32 mg/kg/day, daily IV administration for 7 consecutive days) and at least 0.4 mg/kg/day in [2] (0.4 mg/kg/day, daily IV administration for 7 consecutive days). Moreover, the no observed adverse effect level (NOAEL) in series [1] (single IV injection) was at least 13.2 mg/kg; in [2] (single IV injection) it was at least 4 mg/kg.
Turning to `OC[C@H]1O[C@H](O[C@H]2O[C@H](CO)[C@@H](O)[C@H](O)[C@H]2[18F])[C@H](O)[C@@H](O)[C@@H]1O` [[^18F]FDT, 2-[^18F]fluoro-2-deoxytrehalose], the degradation in vivo entry in [3] (Mtb-infected and naive rabbits) is recorded as “little apparent degradation”. The radiochemical purity maintained in [3] (blood and urine of rabbits) is listed as over 95%. In addition, the “% 2-FDT” value in series [3] (50 min (Fig. S3E)) is on record as 98.5%; in series [3] (115 min (Fig. S3E)), 94.6%; in [3] (urine (120 min) (Fig. S3E)) it was 95.8%. For the same molecule, in [4], the “uptake in lesions with culturable mycobacteria vs sterile lesions” value is reported as “significantly higher”. Besides, in series [5] (bladder wall, kidneys, adrenals), the “difference in exposure vs FDG” value is 2-to-5 fold. Moreover, the distribution / excretion entry in series [5] (healthy rhesus macaque, 151 MBq iv, ~115 min dynamic PET) was “prominent accumulation of radioactivity in kidney and urinary bladder”. For the same molecule, the effective dose in series [5] (setting [8]) is reported as 0.0154 mSv/MBq. For the same molecule, in [5] (setting [8]), the “organ radiation absorbed dose, kidneys” value was 0.119 mSv/MBq. Besides, in [6] (Mtb-infected marmosets), the “labeling intensity relative to [18F]FDG” value was “about half”. Further, in series [6] (cold [19F]FDT administered 1 h and 5 min prior to radiotracer, infected marmosets), the “reduction of average uptake of [18F]FDT into lesions by pre-blocking” value was determined as 40%. The “reduction in SUV signal during treatment” value in series [6] (marmosets, 4 weeks HRZE, mean ± SD) is recorded as 33 ± 13%. In series [6] (naive vs ~45-day Mtb-infected marmoset), the “signal in lung of naive marmoset” value is “low background signal”. Also, the “tissue uptake of the radiotracer” value in series [7] is reported as “little tissue uptake of the radiotracer in organs other than in kidney”.
`O=C[C@H](O)[C@@H](O)[C@H](O)[C@H](O)COP(=O)(O)O` [G6P, Glucose-6-phosphate]: in the series on OtsA, the Km is 7.3 ± 0.6 mM and the kcat is 34 ± 1 s⁻¹.
As to `O=P(O)(O)OC[C@H]1O[C@H](O[C@H]2O[C@H](CO)[C@@H](O)[C@H](O)[C@H]2O)[C@H](O)[C@@H](O)[C@@H]1O` [T6P, trehalose-6-phosphate], at OtsB, the Km worked out at 3.6 ± 0.8 mM and the kcat stood at 286 ± 34 s⁻¹. Besides, at OtsB^Sf, the Michaelis constant (Km) amounted to 2.8 ± 0.7 mM and the kcat turned out to be 740 ± 96 s⁻¹.
